Assay results: paper PMC4336329 (PLoS ONE, 2015)
Hit rate of the full screen: of about 310,000 compounds, about 14,000 (4.5%) showed an effect of 50% or more. The effect is printed as a negative number. The list shows a part of the results.

Each molecule was assayed against human ether-à-go-go-related gene (hERG) potassium channel (human, UniProt Q12809) (assay: primary screen, population patch clamp on CHO cells stably expressing hERG).
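Also: peak tail current of the secondary pulse compared with the same well before compound.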

Sequence of human ether-à-go-go-related gene (hERG) potassium channel (Q12809 whole entry, looked up): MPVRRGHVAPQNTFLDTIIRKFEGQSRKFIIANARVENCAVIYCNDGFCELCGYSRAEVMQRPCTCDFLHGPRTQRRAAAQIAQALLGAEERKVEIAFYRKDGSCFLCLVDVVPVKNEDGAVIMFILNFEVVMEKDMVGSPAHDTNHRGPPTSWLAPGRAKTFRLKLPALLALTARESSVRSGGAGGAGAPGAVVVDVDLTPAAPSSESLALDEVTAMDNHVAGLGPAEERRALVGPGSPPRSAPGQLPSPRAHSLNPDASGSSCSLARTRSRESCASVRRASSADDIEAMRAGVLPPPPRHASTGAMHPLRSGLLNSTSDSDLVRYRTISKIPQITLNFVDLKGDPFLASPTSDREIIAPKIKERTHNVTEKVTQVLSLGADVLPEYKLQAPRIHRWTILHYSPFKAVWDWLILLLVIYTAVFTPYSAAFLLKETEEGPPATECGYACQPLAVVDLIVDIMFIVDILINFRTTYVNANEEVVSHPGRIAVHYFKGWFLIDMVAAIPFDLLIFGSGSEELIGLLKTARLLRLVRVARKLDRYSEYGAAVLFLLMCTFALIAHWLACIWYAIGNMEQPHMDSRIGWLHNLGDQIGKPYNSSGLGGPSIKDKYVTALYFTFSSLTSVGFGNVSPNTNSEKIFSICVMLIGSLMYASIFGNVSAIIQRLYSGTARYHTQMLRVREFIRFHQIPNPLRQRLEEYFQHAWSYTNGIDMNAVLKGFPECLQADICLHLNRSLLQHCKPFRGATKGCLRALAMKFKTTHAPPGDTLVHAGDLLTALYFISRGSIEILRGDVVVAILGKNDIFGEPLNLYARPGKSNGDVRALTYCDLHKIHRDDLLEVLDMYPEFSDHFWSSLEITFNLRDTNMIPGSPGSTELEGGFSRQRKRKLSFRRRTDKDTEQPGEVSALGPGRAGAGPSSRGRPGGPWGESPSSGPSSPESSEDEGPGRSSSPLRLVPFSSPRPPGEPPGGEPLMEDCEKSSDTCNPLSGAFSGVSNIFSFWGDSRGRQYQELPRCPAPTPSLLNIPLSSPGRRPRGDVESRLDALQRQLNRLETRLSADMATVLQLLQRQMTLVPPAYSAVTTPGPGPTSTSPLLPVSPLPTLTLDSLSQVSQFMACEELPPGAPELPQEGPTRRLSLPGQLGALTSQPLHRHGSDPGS

SMILES | hERG current change (%, negative = inhibition) at 10uM
Cc1ccc(NC(=O)C(OC(=O)c2ccc(NC(N)=O)cc2)c2ccccc2)cc1Cl (stereo not drawn) | -3.17%
COC(=O)c1[nH]c2cc(C)ccc2c1NC(=O)CN1CCCc2ccccc21 | -25.3%
CCOC(=O)Cc1csc(NC(=O)c2ccc(S(=O)(=O)N(CCOC)CCOC)cc2)n1 | -1.25%
CC1=CC(=O)c2ccccc2C1=O | -7.36%
Cc1cc2nc3ccc(N(C)C)cc3nc2cc1N | 0.339%
Nc1c(C(=O)Nc2ccc(F)cc2)sc(=S)n1-c1ccccc1F | 8.49%
COc1ccc2c(c1)c(N=NC(N)=S)c(O)n2CC(=O)c1ccccc1 | 22.8%
O=C(CCC(=O)Nc1ccccc1)NNS(=O)(=O)c1ccccc1[N+](=O)[O-] | 19.6%
COc1cc(NS(=O)(=O)c2ccc(NC(=S)NC(=O)/C=C/c3ccc(OC)c(OC)c3)cc2)ncn1 | 10%
CSc1cccc(NC(=O)c2ccc(Cl)nc2)c1 | 1.68%
COc1cc2c(cc1OC)C(c1cccc(OC)c1OC)CC(=O)N2 (stereo not drawn) | -33.5%
COc1ccccc1N1CCN(C(=O)CC2NC3CCCCC3NC2=O)CC1 (stereo not drawn) | 4.6%
COCCCNC(=O)C1CCCN(C(=O)Nc2ccc(OC)cc2)C1 (stereo not drawn) | -14.1%
COc1cc(CN(C)CC(=O)c2[nH]c(C)c(C(C)=O)c2C)ccc1OC(F)F | -47.6%
CN(Cc1ccc(Cl)cc1)C(=O)c1ccc2ccccc2n1 | -30.8%
O=C1CCN(Cc2ccccc2)CCN1[C@H](COc1ccccc1)c1ccccc1 | -57.9%
CN1CCN(C2=Nc3cc(F)ccc3Cc3ccccc32)CC1 | -35.7%
CCc1ccc(S(=O)(=O)NCc2csc(-c3cccnc3)n2)s1 | -12.4%
CC1CN(C2CCN(S(=O)(=O)c3ccccc3)CC2)CC(C)O1 (stereo not drawn) | -3.76%
O=C(OCC(=O)N1CCCCC1)c1ccc2c(c1)C(=O)N(Cc1ccco1)C2=O | -28%
CC(=O)Oc1oc(-c2ccccc2)nc1C=Nc1ccccc1 | 9.9%
O=C(COc1ccc(S(=O)(=O)N2CCOCC2)cc1)N1CCN(c2ccccc2)CC1 | -15.9%

SMILES | hERG current change (%, negative = inhibition) at 10uM
CC(=O)Nc1ccc(SCC(=O)N(CCC#N)c2ccc(C)cc2)cc1 | -24.1%
Cc1ccc(S(=O)(=O)CCC(=O)OCC(=O)NC(=O)c2ccccc2)cc1 | 14.3%
COc1ccccc1N1CCN(C(c2ccccc2Cl)c2nnnn2C(C)(C)C)CC1.Cl (stereo not drawn) | 6.69%
CCCN(CCC)Cc1c(C(=O)N/N=C/c2cccs2)nnn1-c1nonc1N | -12.8%
CSc1ccc(/C=N/NC(=O)CN2CCN(Cc3ccccc3)CC2)cc1 | -74.6%
CCOc1ccc(S(=O)(=O)NCCC(=O)NCC(c2ccco2)N2CCCCC2)cc1 (stereo not drawn) | -17.7%
Cn1cc(Br)c(C(=O)NC2CCCCC2)n1 | -2.74%
COc1cccc2cc(-c3nnc(SCC(=O)Nc4cc(C(F)(F)F)ccc4Cl)n3N)oc12 | 8.83%
O=C(c1ccc(=O)[nH]c1)N1CCN(S(=O)(=O)c2ccccc2)CC1 | 2.97%
CC(C)n1nc(C(=O)Nc2ccccc2N2CCOCC2)c2ccccc2c1=O | -7.57%
C/C(=N\NC(=O)CN(c1ccccc1)S(C)(=O)=O)c1ccccc1O | 2.75%
N#CCCn1cc(C(=O)O)c(-c2cc3ccccc3o2)n1 | 24.6%
Cn1c(CSc2nc3ccccc3s2)n[nH]c1=S | 11.3%
COc1ccc(C2(CNC(=O)c3ccccc3)CCCC2)cc1OC | -7.95%
Cc1cccc(C)c1NC(=S)Nc1c(C)n(C)n(-c2ccccc2)c1=O | -1.97%
O=C(NC(=O)c1ccccc1F)Nc1nc(-c2cccs2)cc(C(F)(F)F)n1 | 4.49%
CCC(C)c1ccc(OCC(=O)Nc2ccc3c(c2)C(=O)NC3=O)cc1 (stereo not drawn) | 13.8%
COc1cc(/C=N/NC(=O)c2cccnc2)ccc1OC(=O)c1ccc([N+](=O)[O-])cc1 | 10.9%
CN(C)S(=O)(=O)c1ccc(C(=O)OCCCN=C2NS(=O)(=O)c3ccccc32)cc1 | -7.5%
O=C(c1cccc(S(=O)(=O)Nc2cccc(C(F)(F)F)c2)c1)N1CCOCC1 | -7.37%
CCOC(=O)c1cc(-c2ccccc2)sc1NC(=O)COC(=O)c1ccc(Cl)c(S(N)(=O)=O)c1 | 7.47%
CCCCN(CCCNC(=O)CN1C(=O)COc2ccccc21)c1ccccc1 | -26%

SMILES | hERG current change (%, negative = inhibition) at 10uM
Cc1cc(C)cc(NS(=O)(=O)c2csc(C(N)=O)c2)c1 | 17.3%
Nc1cccc(-c2nc3ccccc3[nH]2)c1 | 4.39%
COc1ccccc1N1CCN(S(=O)(=O)CCNC(=O)c2ccccc2Br)CC1 | 3.17%
C/C(=N\NC(=O)c1cc2ccccc2cc1O)c1ccc(C)o1 | 9.05%
O=C(c1cccs1)N1CCCc2ccccc21 | -14.4%
CCn1c(=O)n(CC)c2cc(S(=O)(=O)Nc3ccccc3C)c(C)cc21 | -11%
COc1ccc(-c2nc(CCl)cs2)cc1.Cl | 21.8%
COc1ccccc1/C=C/C(=O)Nc1ccc(S(=O)(=O)Nc2cc(C)nc(C)n2)cc1 | 8.24%
CCOc1ccc2nc(N3CCC(C(=O)N4CCN(c5ncccn5)CC4)CC3)sc2c1 | -13.4%
O=C(CSCc1ccc(Cl)c(Cl)c1)Nc1c[nH]c(=O)[nH]c1=O | 24.7%
COc1ccc(C2C(C(N)=O)=C(C)Nc3nc(-c4cccc(Cl)c4)nn32)cc1OC (stereo not drawn) | 8.81%
COc1ccc(C2=CC(c3cccc(OC)c3)n3nnnc3N2)cc1 (stereo not drawn) | 8.61%
CC(Sc1ccccc1)C(=O)Nc1ccc(N2CCOCC2)cc1 (stereo not drawn) | -7.09%
CCC1(CC)NC(=O)N(CC(=O)NC(=O)NCc2ccccc2)C1=O | 11.7%
COc1ccc2[nH]c(=O)c(CN(Cc3ccco3)C(c3nnnn3Cc3ccccc3)C(C)C)cc2c1 (stereo not drawn) | -19.8%
N/C(=N\c1nc(C(F)(F)F)cc(=O)[nH]1)Nc1ccc(Cl)cc1 | -2.92%
Cc1ccccc1Cn1c(=O)sc2ccccc2c1=O | 9.73%
CCN(CC)C(=O)CS(=O)(=O)CC(=O)Nc1cc(OCCOC)c(Cl)cc1Cl | -12.8%
O=C(NCc1ccco1)c1cc(-c2ccccc2)nc2ccccc12 | -16.5%
O=C(CCC(=O)c1ccc(F)cc1)Nc1cccnc1 | 1.31%
O=C(CCSc1nnc2scc(-c3ccccc3)n12)Nc1nc(-c2ccccc2)ns1 | 6.01%
O=C(NNS(=O)(=O)c1ccccc1)c1ccc([N+](=O)[O-])cc1 | -8.91%

SMILES | hERG current change (%, negative = inhibition) at 10uM
O=C(N/N=C/c1cccc2nccnc12)c1ccccc1O | -0.891%
Cc1ccc(C(=O)CSc2nnc3c4ccccc4nc(C(C)(C)C)n23)cc1 | 12.8%
Cc1c(NC2(C#N)CCCCC2)c(=O)n(-c2ccccc2)n1C | 16.2%
CCOc1cc2[nH]c(=O)n(Cc3ccc(C(=O)NCCCN4CCCC4=O)cc3)c(=O)c2cc1OCC | 16.2%
CCc1nnc(NC(=O)C2CCN(C(=O)NC3CCCCC3)CC2)s1 | -4.36%
CSc1ccc(/C=C/C(=O)OCC(=O)NC2CCS(=O)(=O)C2)cc1 (stereo not drawn) | 12%
CC(C)(C)C(=O)Nc1ccccc1C(=O)Nc1ccncc1 | 15.2%
COc1ccc(C(O)c2nccn2Cc2ccccc2)cc1 (stereo not drawn) | 9.83%
CCc1ccc(C2C(C#N)=C(N)Oc3n[nH]c(CC(=O)OC)c32)cc1 (stereo not drawn) | -2.08%
CCn1c(SCC(=O)c2ccc3ccccc3c2)nnc1-c1ccco1 | -0.477%
CC(=O)c1ccc(N(CC(=O)NCC2CCCO2)C(=O)CCC(=O)Nc2cc(C)on2)cc1 (stereo not drawn) | 22.4%
CCN(C(=O)COC(=O)Cc1coc2cc(C)ccc12)c1c(N)n(Cc2ccccc2)c(=O)[nH]c1=O | -7.54%
CC1(C)C(=O)OC(/C=C/c2cccc([N+](=O)[O-])c2)C(C)(C)C1=O (stereo not drawn) | 20.8%
O=C(O)c1ccc(/C=C2\CCCc3c2nc2ccccc2c3C(=O)O)cc1 | 17.4%
COc1ccc(CSCC(=O)Nc2ccc(S(=O)(=O)N3CCCCCC3)cc2)cc1 | -6.24%
O=C(CN1CCOCC1)NCC(=O)Nc1ccc(Br)cc1C(=O)c1ccccc1 | -37.1%
Oc1ccc(CN2CCN(c3ncccn3)CC2)cc1 | 12.4%
COc1ccc(CNC(=O)C2CC(C)=CCC2C(=O)O)cc1 (stereo not drawn) | 18.3%
CCCCC(CC)CNC(=O)c1cccs1 (stereo not drawn) | 8.33%
CCOCCOC(=O)C1=C(C)N(C)C(=O)NC1c1ccccc1Cl (stereo not drawn) | 9.54%
O=C(CN(Cc1ccco1)C(=O)CNS(=O)(=O)c1ccc(F)cc1)NCc1ccccc1 | -28.4%
